The supplement of paper PMC8728848
Some of the results follow.

How the values were obtained:
Assay in all cases: glycan array binding signal (z-score within array); higher = stronger binding
Settings in all cases: glycan notation: IUPAC condensed, linker removed
Fuc(a1-2)Gal = target: Fuc(a1-2)Gal
Method in brief: (§1)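 Glycan array binding is given as a within-array Z-score, which can be read as non-binding when negative. The arrays, 3228 of them, came from the Consortium for Functional Glycomics database and were retained only where the protein sequence was available. Z-scores were averaged across arrays of the same protein sequence at different concentrations or buffers and across linkers.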

Fuc(a1-2)Gal(b1-3)GalNAc = target: Fuc(a1-2)Gal(b1-3)GalNAc
Method in brief: as §1

[1] = target: Fuc(a1-2)Gal(b1-3)GalNAc(a1-3)[Fuc(a1-2)]Gal(b1-4)Glc
Method in brief: as §1

[2] = target: Fuc(a1-2)Gal(b1-3)GalNAc(a1-3)[Fuc(a1-2)]Gal(b1-4)GlcNAc
Method in brief: as §1

[3] = target: Fuc(a1-2)Gal(b1-3)GalNAc(b1-3)Gal
Method in brief: as §1

[4] = target: Fuc(a1-2)Gal(b1-3)GalNAc(b1-3)Gal(a1-4)Gal(b1-4)Glc
Method in brief: as §1

[5] = target: Fuc(a1-2)Gal(b1-3)GalNAc(b1-4)[Neu5Ac(a2-3)]Gal(b1-4)Glc
Method in brief: as §1

Fuc(a1-2)Gal(b1-3)GlcNAc = target: Fuc(a1-2)Gal(b1-3)GlcNAc
Method in brief: as §1

[6] = target: Fuc(a1-2)Gal(b1-3)GlcNAc(b1-2)Man(a1-3)[Fuc(a1-2)Gal(b1-3)GlcNAc(b1-2)Man(a1-6)]Man(b1-4)GlcNAc(b1-4)GlcNAc
Method in brief: as §1

[7] = target: Fuc(a1-2)Gal(b1-3)GlcNAc(b1-3)Gal(b1-4)Glc
Method in brief: as §1

[8] = target: Fuc(a1-2)Gal(b1-3)GlcNAc(b1-3)[Fuc(a1-3)[Gal(b1-4)]GlcNAc(b1-6)]Gal(b1-4)Glc
Method in brief: as §1

[9] = target: Fuc(a1-2)Gal(b1-3)[Fuc(a1-4)]GlcNAc
Method in brief: as §1

[10] = target: Fuc(a1-2)Gal(b1-3)[Fuc(a1-4)]GlcNAc(b1-2)Man(a1-3)[Fuc(a1-2)Gal(b1-3)[Fuc(a1-4)]GlcNAc(b1-2)Man(a1-6)]Man(b1-4)GlcNAc(b1-4)GlcNAc
Method in brief: as §1

[11] = target: Fuc(a1-2)Gal(b1-3)[Fuc(a1-4)]GlcNAc(b1-3)[Fuc(a1-3)[Gal(b1-4)]GlcNAc(b1-6)]Gal(b1-4)Glc
Method in brief: as §1

[12] = target: Fuc(a1-2)Gal(b1-3)[Fuc(a1-4)]GlcNAc(b1-3)[Gal(b1-4)GlcNAc(b1-6)]Gal(b1-4)Glc
Method in brief: as §1

Fuc(a1-2)Gal(b1-4)Glc = target: Fuc(a1-2)Gal(b1-4)Glc
Method in brief: as §1

Fuc(a1-2)Gal(b1-4)Glc6S = target: Fuc(a1-2)Gal(b1-4)Glc6S
Method in brief: as §1

Fuc(a1-2)Gal(b1-4)GlcNAc = target: Fuc(a1-2)Gal(b1-4)GlcNAc
Method in brief: as §1

[13] = target: Fuc(a1-2)Gal(b1-4)GlcNAc(b1-2)Man(a1-3)[Fuc(a1-2)Gal(b1-4)GlcNAc(b1-2)Man(a1-6)]Man(b1-4)GlcNAc(b1-4)GlcNAc
Method in brief: as §1

[14] = target: Fuc(a1-2)Gal(b1-4)GlcNAc(b1-3)Gal(b1-4)GlcNAc
Method in brief: as §1

[15] = target: Fuc(a1-2)Gal(b1-4)GlcNAc(b1-3)Gal(b1-4)GlcNAc(b1-3)Gal(b1-4)GlcNAc
Method in brief: as §1

[16] = target: Fuc(a1-2)Gal(b1-4)GlcNAc(b1-3)GalNAc
Method in brief: as §1

[17] = target: Fuc(a1-2)Gal(b1-4)GlcNAc6S
Method in brief: as §1

[18] = target: Fuc(a1-2)Gal(b1-4)[Fuc(a1-3)]GlcNAc
Method in brief: as §1

[19] = target: Fuc(a1-2)Gal(b1-4)[Fuc(a1-3)]GlcNAc(b1-2)Man(a1-3)[Fuc(a1-2)Gal(b1-4)[Fuc(a1-3)]GlcNAc(b1-2)Man(a1-6)]Man(b1-4)GlcNAc(b1-4)GlcNAc
Method in brief: as §1

[20] = target: Fuc(a1-2)Gal(b1-4)[Fuc(a1-3)]GlcNAc(b1-3)Gal(b1-4)[Fuc(a1-3)]GlcNAc
Method in brief: as §1

[21] = target: Fuc(a1-2)Gal(b1-4)[Fuc(a1-3)]GlcNAc(b1-3)Gal(b1-4)[Fuc(a1-3)]GlcNAc(b1-3)Gal(b1-4)[Fuc(a1-3)]GlcNAc
Method in brief: as §1

Fuc(a1-2)Gal6S(b1-4)Glc = target: Fuc(a1-2)Gal6S(b1-4)Glc
Method in brief: as §1

[22] = target: Fuc(a1-2)Gal6S(b1-4)Glc6S
Method in brief: as §1

[23] = target: Fuc(a1-2)Gal6S(b1-4)GlcNAc
Method in brief: as §1

Fuc(a1-2)[Gal(a1-3)]Gal = target: Fuc(a1-2)[Gal(a1-3)]Gal
Method in brief: as §1

[24] = target: Fuc(a1-2)[Gal(a1-3)]Gal(b1-3)GlcNAc
Method in brief: as §1

[25] = target: Fuc(a1-2)[Gal(a1-3)]Gal(b1-3)GlcNAc(b1-2)Man(a1-3)[Fuc(a1-2)[Gal(a1-3)]Gal(b1-3)GlcNAc(b1-2)Man(a1-6)]Man(b1-4)GlcNAc(b1-4)GlcNAc
Method in brief: as §1

[26] = target: Fuc(a1-2)[Gal(a1-3)]Gal(b1-4)Glc
Method in brief: as §1

[27] = target: Fuc(a1-2)[Gal(a1-3)]Gal(b1-4)GlcNAc
Method in brief: as §1

[28] = target: Fuc(a1-2)[Gal(a1-3)]Gal(b1-4)GlcNAc(b1-2)Man(a1-3)[Fuc(a1-2)[Gal(a1-3)]Gal(b1-4)GlcNAc(b1-2)Man(a1-6)]Man(b1-4)GlcNAc(b1-4)GlcNAc
Method in brief: as §1

[29] = target: Fuc(a1-2)[Gal(a1-3)]Gal(b1-4)[Fuc(a1-3)]GlcNAc
Method in brief: as §1

B1: exo-alpha-sialidase (Propionibacterium acnes), Q6A7G1 (protein)
chain: GSHMSGRAPAPVAATTQPKLVTGDITSTDQSGTNLFFGKKIVRNARGAIMKVDRTWPAAVPAPLPDVRADSSTRMLLGPVVDLAVNEHPEGVFYRIPALATASNGDLLASYDLRPGSAGDAPNPNSIVQRRSRDNGRTWGPQTVIHAGTPGRRKVGYSDPSYLVDPATGRILNFHVKSYDRGFATSEVGTDPDDRHVLHAEVSTSTDNGHTWTHRDITREITSDPTTRTRFVASGQGIALLHGPHAGRLIAQMTVRNSVGQQAQSIYSDDHGITWHAGNPVGRMMDENKVVELSDGTLMLNSRDAARSGRRKVAYSQDGGLTWGPVKLVDDLIDPTNNAQIIRAYPNARAGSAKARILLFTNARNATERVNGTLSVSCDDGRTWVSHQTYMPGEVGYTTAAVQSDGALGVLWERDGIRYSTIPMGWLNSVCPLAPSGRPTSGKPTSGTSLPPTAT
glycan array binding signal (z-score) (Fuc(a1-2)Gal): -0.357 | glycan array binding signal (z-score) (Fuc(a1-2)Gal(b1-3)GalNAc): -0.3 | glycan array binding signal (z-score) [1]: -0.335 | glycan array binding signal (z-score) [2]: -0.316 | glycan array binding signal (z-score) [3]: -0.355 | glycan array binding signal (z-score) [4]: -0.278 | glycan array binding signal (z-score) [5]: -0.338 | glycan array binding signal (z-score) (Fuc(a1-2)Gal(b1-3)GlcNAc): -0.349 | glycan array binding signal (z-score) [6]: -0.374 | glycan array binding signal (z-score) [7]: -0.359 | glycan array binding signal (z-score) [8]: -0.336 | glycan array binding signal (z-score) [9]: -0.355 | glycan array binding signal (z-score) [10]: -0.03 | glycan array binding signal (z-score) [11]: -0.361 | glycan array binding signal (z-score) [12]: -0.368 | glycan array binding signal (z-score) (Fuc(a1-2)Gal(b1-4)Glc): -0.361 | glycan array binding signal (z-score) (Fuc(a1-2)Gal(b1-4)Glc6S): -0.256 | glycan array binding signal (z-score) (Fuc(a1-2)Gal(b1-4)GlcNAc): -0.347 | glycan array binding signal (z-score) [13]: -0.361 | glycan array binding signal (z-score) [14]: -0.312 | glycan array binding signal (z-score) [15]: -0.337 | glycan array binding signal (z-score) [16]: -0.353 | glycan array binding signal (z-score) [17]: -0.306 | glycan array binding signal (z-score) [18]: -0.316 | glycan array binding signal (z-score) [19]: -0.166 | glycan array binding signal (z-score) [20]: -0.365 | glycan array binding signal (z-score) [21]: -0.348 | glycan array binding signal (z-score) (Fuc(a1-2)Gal6S(b1-4)Glc): -0.3 | glycan array binding signal (z-score) [22]: -0.353 | glycan array binding signal (z-score) [23]: -0.332 | glycan array binding signal (z-score) (Fuc(a1-2)[Gal(a1-3)]Gal): -0.346 | glycan array binding signal (z-score) [24]: -0.322 | glycan array binding signal (z-score) [25]: -0.375 | glycan array binding signal (z-score) [26]: -0.374 | glycan array binding signal (z-score) [27]: -0.345 | glycan array binding signal (z-score) [28]: -0.343 | glycan array binding signal (z-score) [29]: -0.208
